Experimental data from EPA's CvTdb concentration-time database.
The source gives many values for each of these; only a part stands here.

Assays:
Rat [1] = assay: concentration in brain after dosing; details: 12 h; dosed: 2-Methyltetrahydrofuran; 400 mg/kg; oral; Female; Harlan Sprague Dawley
Rat [2] = assay: concentration in plasma after dosing; details: 4 min; dosed: 2-Methyltetrahydrofuran; 30 mg/kg; oral; Male; F344
Rat [3] = assay: concentration in brain after dosing; details: 2 min; dosed: 2-Methyltetrahydrofuran; 30 mg/kg; oral; Female; F344
Rat [4] = assay: concentration in plasma after dosing; details: 0.75 h; dosed: 2-Methyltetrahydrofuran; 100 mg/kg; oral; Female; Harlan Sprague Dawley
Rat [5] = assay: concentration in plasma after dosing; details: 2.5 h; dosed: 2-Methyltetrahydrofuran; 10 mg/kg; oral; Female; F344
Rat [6] = assay: concentration in plasma after dosing; details: 2 min; dosed: 2-Methyltetrahydrofuran; 10 mg/kg; iv; Female; F344
Rat [7] = assay: concentration in brain after dosing; details: 2 min; dosed: 2-Methyltetrahydrofuran; 10 mg/kg; oral; Female; F344
Rat [8] = assay: concentration in plasma after dosing; details: 1.5 h; dosed: 2-Methyltetrahydrofuran; 30 mg/kg; oral; Male; F344
Rat [9] = assay: concentration in brain after dosing; details: 1 h; dosed: 2-Methyltetrahydrofuran; 10 mg/kg; iv; Female; F344
Rat [10] = assay: concentration in brain after dosing; details: 2 min; dosed: 2-Methyltetrahydrofuran; 10 mg/kg; iv; Male; F344
Rat [11] = assay: concentration in plasma after dosing; details: 3 h; dosed: 2-Methyltetrahydrofuran; 10 mg/kg; iv; Male; F344
Rat [12] = assay: concentration in plasma after dosing; details: 0.25 h; dosed: 2-Methyltetrahydrofuran; 10 mg/kg; oral; Male; F344
Rat [13] = assay: concentration in brain after dosing; details: 3 h; dosed: 2-Methyltetrahydrofuran; 10 mg/kg; iv; Female; F344
Rat [14] = assay: concentration in plasma after dosing; details: 10 min; dosed: 2-Methyltetrahydrofuran; 30 mg/kg; oral; Male; F344
Rat [15] = assay: concentration in plasma after dosing; details: 3 h; dosed: 2-Methyltetrahydrofuran; 10 mg/kg; iv; Female; F344
Rat [16] = assay: concentration in plasma after dosing; details: 40 min; dosed: Bromochloroacetic acid; 10 mg/kg; iv; Male; F344
Rat [17] = assay: concentration in plasma after dosing; details: dosed: Bromochloroacetic acid, 100 mg/kg, oral, Female, F344
Rat [18] = assay: concentration in plasma after dosing; details: dosed: Bromochloroacetic acid, 100 mg/kg, oral, Male, F344
Rat [19] = assay: concentration in plasma after dosing; details: dosed: Fluorotelomer alcohol 8+2, 48 mg/kg, oral, Male, Harlan Sprague Dawley
Rat [20] = assay: concentration in plasma after dosing; details: 48 h; dosed: Fluorotelomer alcohol 8+2; 160 mg/kg; oral; Female; Harlan Sprague Dawley
Rat [21] = assay: concentration in plasma after dosing; details: 1 h; dosed: Fluorotelomer alcohol 8+2; 80 mg/kg; oral; Female; Harlan Sprague Dawley
Rat [22] = assay: concentration in plasma after dosing; details: 1 h; dosed: Fluorotelomer alcohol 8+2; 80 mg/kg; oral; Female; Harlan Sprague Dawley; remark: listed apart in the source
Rat [23] = assay: concentration in plasma after dosing; details: 2 h; dosed: Formamide; 30 mg/kg; iv; Female; F344
Rat [24] = assay: concentration in plasma after dosing; details: dosed: Formamide, 36 mg/kg, oral, Male, Harlan Sprague Dawley
Rat [25] = assay: concentration in plasma after dosing; details: dosed: Formamide, 90 mg/kg, iv, Male, Harlan Sprague Dawley
Rat [26] = assay: concentration in plasma after dosing; details: dosed: Formamide, 600 mg/kg, oral, Female, Harlan Sprague Dawley
Rat [27] = assay: concentration in plasma after dosing; details: dosed: Formamide, 300 mg/kg, oral, Female, Harlan Sprague Dawley
Rat [28] = assay: concentration in plasma after dosing; details: dosed: Formamide, 300 mg/kg, oral, Female, Harlan Sprague Dawley; remark: listed apart in the source
Rat [29] = assay: concentration in plasma after dosing; details: dosed: Formamide, 36 mg/kg, oral, Female, Harlan Sprague Dawley
Rat [30] = assay: concentration in plasma after dosing; details: dosed: Formamide, 36 mg/kg, oral, Female, Harlan Sprague Dawley; remark: listed apart in the source
Rat [31] = assay: concentration in plasma after dosing; details: dosed: Formamide, 600 mg/kg, oral, Male, F344
Rat [32] = assay: concentration in plasma after dosing; details: 5 min; dosed: Pyridine; 0.5 mg/kg; iv; Male; F344
Rat [33] = assay: concentration in plasma after dosing; details: 4 h; dosed: Pyridine; 50 mg/kg; oral; Female; F344
Rat [34] = assay: concentration in plasma after dosing; details: 2 h; dosed: Pyridine; 10 mg/kg; oral; Male; F344
Rat [35] = assay: concentration in plasma after dosing; details: 2 min; dosed: Pyridine; 50 mg/kg; oral; Female; F344
Rat [36] = assay: concentration in plasma after dosing; details: 4 h; dosed: Pyridine; 50 mg/kg; oral; Male; Harlan Sprague Dawley
Rat [37] = assay: concentration in plasma after dosing; details: dosed: Pyridine, 5 mg/kg, oral, Female, F344
Rat [38] = assay: concentration in plasma after dosing; details: dosed: Pyridine, 100 mg/kg, oral, Female, F344

CC1CCCO1 (stereo unspecified) [2-Methyltetrahydrofuran]
concentration in brain (Rat [1]): 2.37 µg/g | concentration in plasma (Rat [2]): 11200 ng/mL | concentration in brain (Rat [3]): 5.61 µg/g | concentration in plasma (Rat [4]): 40800 ng/mL | concentration in plasma (Rat [5]): 72.9 ng/mL | concentration in plasma (Rat [6]): 19800 ng/mL | concentration in brain (Rat [7]): 1.71 µg/g | concentration in plasma (Rat [8]): 15600 ng/mL | concentration in brain (Rat [9]): 0.582 µg/g | concentration in brain (Rat [10]): 8.86 µg/g | concentration in plasma (Rat [11]): 65.7 ng/mL | concentration in plasma (Rat [12]): 2990 ng/mL | concentration in brain (Rat [13]): 0.0557 µg/g | concentration in plasma (Rat [14]): 12600 ng/mL | concentration in plasma (Rat [15]): 33.5 ng/mL

O=C(O)C(Cl)Br (stereo unspecified) [Bromochloroacetic acid]
concentration in plasma (Rat [16]): 126 ng/mL | concentration in plasma (Rat [17]; 10 min): 8610 ng/mL | concentration in plasma (Rat [17]; 4.5 h): 2950 ng/mL | concentration in plasma (Rat [18]; 20 min): 23400 ng/mL | concentration in plasma (Rat [18]; 7 h): 1320 ng/mL

OCCC(F)(F)C(F)(F)C(F)(F)C(F)(F)C(F)(F)C(F)(F)C(F)(F)C(F)(F)F [Fluorotelomer alcohol 8+2]
concentration in plasma (Rat [19]; 5 min): 4.76 ng/mL | concentration in plasma (Rat [19]; 3 h): 361 ng/mL | concentration in plasma (Rat [20]): 3.89 ng/mL | concentration in plasma (Rat [21]): 715 ng/mL | concentration in plasma (Rat [22]): 627 ng/mL

NC=O [Formamide]
concentration in plasma (Rat [23]): 41000 ng/mL | concentration in plasma (Rat [24]; 0.25 h): 17300 ng/mL | concentration in plasma (Rat [24]; 5 h): 44200 ng/mL | concentration in plasma (Rat [25]; 5 h): 108000 ng/mL | concentration in plasma (Rat [25]; 72 h): 3300 ng/mL | concentration in plasma (Rat [26]; 0.5 h): 735000 ng/mL | concentration in plasma (Rat [26]; 48 h): 71600 ng/mL | concentration in plasma (Rat [27]; 1 h): 192000 ng/mL | concentration in plasma (Rat [27]; 72 h): 13000 ng/mL | concentration in plasma (Rat [28]; 10 min): 135000 ng/mL | concentration in plasma (Rat [28]; 20 h): 454000 ng/mL | concentration in plasma (Rat [29]; 0.5 h): 38700 ng/mL | concentration in plasma (Rat [29]; 48 h): 2700 ng/mL | concentration in plasma (Rat [30]; 5 min): 9400 ng/mL | concentration in plasma (Rat [30]; 2 h): 46400 ng/mL | concentration in plasma (Rat [31]; 8 h): 683000 ng/mL | concentration in plasma (Rat [31]; 12 h): 654000 ng/mL

c1ccncc1 [Pyridine]
concentration in plasma (Rat [32]): 440 ng/mL | concentration in plasma (Rat [33]): 17800 ng/mL | concentration in plasma (Rat [34]): 451 ng/mL | concentration in plasma (Rat [35]): 20200 ng/mL | concentration in plasma (Rat [36]): 21500 ng/mL | concentration in plasma (Rat [37]; 0.5 h): 3450 ng/mL | concentration in plasma (Rat [37]; 6 h): 2000 ng/mL | concentration in plasma (Rat [38]; 2 h): 59900 ng/mL | concentration in plasma (Rat [38]; 14 h): 51300 ng/mL
